Test results taken from PubChem BioAssay AID504332 (National Center for Advancing Translational Sciences (NCATS), 2011).
Several values for one entry are separate records, joined by “and”; a condition that tells them apart may be missing. Equal values may be shown once. The whole screen tested about 350,000 compounds, of which about 31,000 (8.9%) were called active. Inconclusive results, whose numbers are uncertain, are shown with a selection of clear calls. The call rests on the fitted dose curve; in most records, active means well fitted inhibition curve with a large enough effect; inconclusive means small, poorly fitted or top-dose-only effect; inactive means no such curve, though single readings can be large or run the other way. Where the call is inconclusive, the potency comes from a doubtful curve fit.

Each molecule was assayed against Histone-lysine N-methyltransferase EHMT2 (Homo sapiens) (UniProt Q96KQ7) (assay: qHTS Assay for Inhibitors of Histone Lysine Methyltransferase G9a). Settings: G9a H3K9 monomethylation, AlphaScreen, 2 h; activity, negative = inhibition: at 59 µM (top of the series) unless noted.
Chain of UniProt Q96KQ7 (Q96KQ7 whole entry, looked up): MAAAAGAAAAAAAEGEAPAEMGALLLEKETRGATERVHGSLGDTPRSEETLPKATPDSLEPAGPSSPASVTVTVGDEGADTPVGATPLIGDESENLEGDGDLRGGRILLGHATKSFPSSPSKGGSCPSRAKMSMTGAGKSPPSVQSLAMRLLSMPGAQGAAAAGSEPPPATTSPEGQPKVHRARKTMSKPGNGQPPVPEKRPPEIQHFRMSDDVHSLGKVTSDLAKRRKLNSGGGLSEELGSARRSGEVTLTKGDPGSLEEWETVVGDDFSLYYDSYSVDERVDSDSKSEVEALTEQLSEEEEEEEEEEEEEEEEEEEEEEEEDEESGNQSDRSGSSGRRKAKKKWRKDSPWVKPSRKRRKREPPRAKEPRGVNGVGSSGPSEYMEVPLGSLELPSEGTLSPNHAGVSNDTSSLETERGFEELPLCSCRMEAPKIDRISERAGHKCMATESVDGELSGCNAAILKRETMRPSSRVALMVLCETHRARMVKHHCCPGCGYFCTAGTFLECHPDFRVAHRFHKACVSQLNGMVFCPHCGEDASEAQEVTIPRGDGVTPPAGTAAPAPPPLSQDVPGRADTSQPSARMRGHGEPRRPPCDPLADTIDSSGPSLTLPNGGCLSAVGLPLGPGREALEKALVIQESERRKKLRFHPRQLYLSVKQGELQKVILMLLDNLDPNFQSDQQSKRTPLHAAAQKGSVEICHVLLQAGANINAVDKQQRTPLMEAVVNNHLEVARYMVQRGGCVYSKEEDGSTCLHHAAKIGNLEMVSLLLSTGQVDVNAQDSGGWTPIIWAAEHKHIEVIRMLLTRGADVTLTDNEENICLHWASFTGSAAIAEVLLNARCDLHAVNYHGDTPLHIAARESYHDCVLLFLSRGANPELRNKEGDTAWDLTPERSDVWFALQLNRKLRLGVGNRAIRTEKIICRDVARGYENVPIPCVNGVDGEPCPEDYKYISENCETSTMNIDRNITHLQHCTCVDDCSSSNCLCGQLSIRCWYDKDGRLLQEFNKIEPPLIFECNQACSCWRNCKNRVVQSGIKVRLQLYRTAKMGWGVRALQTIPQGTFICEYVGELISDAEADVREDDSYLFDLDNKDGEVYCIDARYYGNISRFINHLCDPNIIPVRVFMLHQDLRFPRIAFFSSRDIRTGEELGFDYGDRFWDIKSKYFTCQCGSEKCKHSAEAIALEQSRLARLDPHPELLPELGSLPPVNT
How it was run: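 AlphaScreen read-out: biotin-H3K9 peptide (500 nM) methylation by 20 nM enzyme with 20 uM SAM, 2 h at room temperature after 15 min compound preincubation; anti-monomethyl H3K9 antibody plus donor/acceptor beads, 10 min dark.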
Further: nearly all actives have a fitted effect of over 75% in size.
On the % scale 0 is the no-effect control and ±100 the full control effect; potency means the concentration at half of the fitted maximal effect; tags describe the fitted curve by direction and shape.

Row | Structure (SMILES) | Potency | activity, negative = inhibition
1 | Cc1ccc(CCC(=O)Nc2ccc(Cl)cc2)o1 | inconclusive: 70.8 µM [inhibitor, single point] | –
2 | COc1ccc(CN(Cc2ccc(C(=O)O)cc2)C(=S)Nc2ccccc2C)cc1OC | active: 44.7 µM | –
3 | O=C(CSC(=S)N1CCCC1)N(Cc1nnc(-c2ccccc2Cl)o1)C1CC1 | inconclusive: 35.5 µM [inhibitor, single point] | –
4 | COc1ccc(CC(=O)Nc2c3c(nn2-c2ccccc2C)CS(=O)C3)cc1 (stereo unspecified) | inconclusive: 28.2 µM [inhibitor, single point] | –
5 | CN(C)CCCNC(=O)C(=O)Nc1ccc2c(c1)N(S(=O)(=O)c1cccs1)CCC2 | inconclusive: 50.1 µM [inhibitor, partial curve, poor fit] | –
6 | O=C(N/C(=C/c1cccs1)C(=O)N1CCOCC1)c1ccco1 | inactive | –
7 | CN(C)S(=O)(=O)c1ccc2c(c1)nnn2CCNC(=O)Nc1ccc(Br)cc1 | – | inactive: 6.53% [at 12.7 µM]
8 | CC[C@H](C)[C@@H]1NC(=O)c2cc([N+](=O)[O-])cc(I)c2SC[C@@H](C(N)=O)NC(=O)[C@H](CCCCN)NC1=O | active: 8.91 µM | –
9 | O=C(NCC1CCCCC1)c1ccc(Cl)c(S(=O)(=O)N2CCOCC2)c1 | – | inconclusive: -51.1% [inhibitor] [at 2.33 µM]
10 | CCn1cc(C(=O)OCC(=O)Nc2cccc(C)c2)c(=O)c2ccc(C)nc21 | inactive | –
11 | O=C(O)c1ccc(-n2nnnc2SCc2ccccc2F)cc1 | inconclusive: 50.1 µM [inhibitor, single point] | –
12 | Cc1ccc(C(=O)NCC(c2cccnc2)N2CCc3ccccc32)cc1C (stereo unspecified) | inconclusive: 8.91 µM [inhibitor, full curve] | –
13 | O=C(O)c1cc(-c2cccc([N+](=O)[O-])c2)n[nH]1 | inconclusive: 44.7 µM [inhibitor, partial curve] | –
14 | CCCCc1nnc(NC(=O)C(C)Sc2nc(N)cc(=O)[nH]2)s1 (stereo unspecified) | inconclusive: 0.891 µM [inhibitor, partial curve, poor fit] | –
15 | CCN(CC)S(=O)(=O)c1cc(C(=O)Nc2cc(C)on2)ccc1Cl | inconclusive: 79.4 µM [inhibitor, single point] | –
16 | COc1ccc(CNC(=O)CN(Cc2ccccc2)C(=O)CCC(=O)Nc2ccccn2)cc1 | inactive | –
17 | CCOC(=O)C(C)Oc1cccc2c(=O)n(CC(=O)Nc3ccc4c(c3)OCCO4)ccc12 (stereo unspecified) | inconclusive: 89.1 µM [inhibitor, single point] and inconclusive: 8.91 µM [inhibitor, partial curve] | –
18 | O=C(CCn1ccc2cc(S(=O)(=O)N3CCCC3)ccc21)NCc1cccc(Br)c1 | inactive | –
19 | O=C(NNC(=O)c1ccc(Br)o1)c1csc(N2CCOCC2)n1 | inconclusive: 6.31 µM [inhibitor, single point] | –
20 | O=C1C2CC=C(Cl)CC2C(=O)N1CC1Cc2ccccc2CO1 (stereo unspecified) | active: 50.1 µM | –
21 | Cc1cc(NC(=O)CSc2nc3sc4c(c3c(=O)n2C)CCCC4)no1 | inactive | –
22 | C=CCOc1ccc(/C=C2\SC(=S)N(C(C(=O)O)c3ccccc3)C2=O)cc1 (stereo unspecified) | inconclusive: 56.2 µM [inhibitor, partial curve, poor fit] | –
23 | COc1cccc(-c2csc(NC(C)=O)n2)c1 | active: 10 µM | –
24 | CC(C)(C)NC(=O)C(=O)NNC(=O)COc1ccccc1 | inconclusive: 28.2 µM [inhibitor, partial curve, poor fit] | –

Row | Structure (SMILES) | Potency | activity, negative = inhibition
25 | Cc1c(C)n(Cc2ccccc2)c2ccc(C(=O)NCc3ccco3)cc12 | inconclusive: 25.1 µM [inhibitor, single point] | –
26 | CC(C)CN(C(=O)COc1ccc(-c2nnco2)cc1)C1CCS(=O)(=O)C1 (stereo unspecified) | inactive | –
27 | CCC1CN(C(=O)Nc2cc(C)cc(C)c2)c2ccccc2O1 (stereo unspecified) | inconclusive: 10 µM [inhibitor, partial curve, poor fit] | –
28 | CSC1=NSC2=NC(=O)/C(=C\c3coc4ccccc4c3=O)C(=N)N12 | inconclusive: 39.8 µM [inhibitor, single point] | –
29 | CCc1ccc(NC(=O)Cn2c(=O)n(CCC(=O)NCc3ccc4c(c3)OCO4)c(=O)c3ccccc32)cc1 | inactive | –
30 | CCOC(=O)N1CCN(C(=O)CCCn2c(=S)[nH]c3ccccc3c2=O)CC1 | inconclusive: 28.2 µM [inhibitor, single point] | –
31 | CCN(CC)CCn1c2c(c(SCC(=O)Nc3cccc4ccccc34)nc1=O)CCC2 | inconclusive: 50.1 µM [inhibitor, partial curve, poor fit] | –
32 | CC(C(=O)Nc1nc2ccccc2[nH]1)N1C(=O)C2CC=CCC2C1=O (stereo unspecified) | inconclusive: 3.16 µM [inhibitor, full curve] | –
33 | CC(C)(C)c1cc(=O)n2c(C#N)c(C#N)nc2[nH]1 | inactive | –
34 | O=C(NCc1ccccc1Cl)c1ccc2c(O)c(S(=O)(=O)c3ccccc3)c(=O)[nH]c2c1 | inconclusive: 8.91 µM [inhibitor, partial curve, poor fit] | –
35 | COc1ccc(-c2cn3ccccc3n2)cc1OC | inactive | –
36 | COCCNC(=O)C1CC(c2ccc([N+](=O)[O-])cc2)=NO1 (stereo unspecified) | inconclusive: 7.08 µM [inhibitor, single point] | –
37 | CN(CCCC(=O)Nc1ccc(OC(F)F)cc1)S(=O)(=O)c1ccc(F)cc1 | active: 44.7 µM | –
38 | COc1cccc(Cn2c(=O)n(-c3ccccc3C)c(=O)c3c2c2cc(C)ccc2n3C)c1 | inconclusive: 8.91 µM [inhibitor, single point] | –
39 | CCOC(=O)C(C(=O)Nc1ccccn1)C1CCCCC1 (stereo unspecified) | active: 50.1 µM | –
40 | Cc1cc(C(=O)Nc2c(C)n(C)n(-c3ccccc3)c2=O)cs1 | inconclusive: 20 µM [inhibitor, partial curve, poor fit] | –
41 | CN(C)c1ccc(/C=N/NC(=O)c2sccc2-n2cccc2)cc1 | active: 28.2 µM | –
42 | CC(C)CCNC(=O)[C@@H](c1ccccc1)N1Cc2ccccc2C1=O | inactive | –
43 | COc1ccc(C(=O)OC/C(O)=C(\C#N)c2nc3ccccc3[nH]2)cc1S(=O)(=O)N1CCOCC1 | active: 79.4 µM | –
44 | COc1ccc(CN2C(=O)c3ccccc3C2C(=O)NC2CCC(C)CC2)c(OC)c1 (stereo unspecified) | inactive | –
45 | CCc1nn(CC(=O)NC(C)c2ccccc2)c(=O)c2cc3sccc3n12 (stereo unspecified) | inactive | –
46 | CCOC(=O)C1=C(CS(=O)(=O)c2ccc(F)cc2)NC(=O)NC1c1ccc(OCC)c(OC)c1 (stereo unspecified) | inactive | –
47 | O=C(COc1ccccc1-c1nc(-c2ccccc2)no1)Nc1ccccc1[N+](=O)[O-] | inconclusive: 25.1 µM [inhibitor, single point] | –
48 | NCCCCCc1cnc[nH]1 | inactive | –

Row | Structure (SMILES) | Potency | activity, negative = inhibition
49 | COc1ccc(-c2cc(=O)oc3cc(OC(C)C(=O)NCC4CCC(C(=O)O)CC4)ccc23)cc1 (stereo unspecified) | inconclusive: 20 µM [inhibitor, single point] | –
50 | COc1cc(/C=C/C(=O)c2ccc3c(c2)OCO3)cc(Cl)c1O | active: 44.7 µM | –
51 | CC(=O)NCc1ccc(S(=O)(=O)N2CCN(c3ccccn3)CC2)cc1 | inconclusive: 89.1 µM [inhibitor, partial curve, poor fit] | –
52 | Cc1ccccc1C(=O)OC1OC(=O)C(Cl)=C1Nc1ccccc1 (stereo unspecified) | inconclusive: 8.91 µM [inhibitor, partial curve, poor fit] | –
53 | O=c1[nH][nH]c2ccccc2c1=O | inconclusive: 35.5 µM [inhibitor, single point] | –
54 | O=C(Nc1ccc(S(=O)(=O)Nc2ccccn2)cc1)c1cccc(Cl)c1 | active: 25.1 µM | –
55 | CCCc1cc(=O)n2[nH]c(NCc3ccccc3OC)nc2n1 | inconclusive: 14.1 µM [inhibitor, partial curve] | –
56 | CCOC(=O)c1c(C)oc2nc(C)nc(NCc3ccccc3OCC)c12 | inactive | –
57 | CC(C)(C)CC(C)(C)c1ccc(OCCOCC[N+](C)(C)Cc2ccccc2)cc1 | inconclusive: 14.1 µM [inhibitor, partial curve, poor fit] | –
58 | O=C(Cn1cncn1)N/N=C/c1cccnc1 | inactive | –
59 | Cc1ccc([C@H]2C(C#N)=C(N)Oc3cc(C)oc(=O)c32)o1 | inconclusive: 56.2 µM [inhibitor, partial curve, poor fit] | –
60 | COc1ccc2c(c1)N(C)C(=O)CC(c1ccccc1)=N2 | – | inconclusive: -93.7% [inhibitor]
61 | Cn1c(SCC(=O)NCc2cccs2)nnc1-c1ccco1 | inactive | –
62 | CC(C)(C)c1cc(-n2ccnc2)n2ncc(-c3ccc(Cl)cc3)c2n1 | inactive | –
63 | COc1ccc(C(CNc2ccc(C(F)(F)F)cn2)N(C)C)cc1OC (stereo unspecified) | inactive | –
64 | COc1cc(OC)c(NS(=O)(=O)c2ccc3c(c2)NC(=O)CCS3)cc1Cl | inactive | –
65 | Cc1nccc(-c2cccc(NC(=O)Nc3ccc(Cl)cc3)c2)n1 | inactive | –
66 | CN(CC(=O)Nc1ccc(F)c(F)c1F)C(=O)c1ccc2c(c1)S(=O)(=O)N=C1CCCCCN12 | inconclusive: 89.1 µM [inhibitor, single point] | –
67 | CCC1(C)Cc2c(C#N)c(N)n(N)c(=S)c2CO1 (stereo unspecified) | inconclusive: 39.8 µM [inhibitor, single point] | –
68 | Cc1noc(C)c1C(=O)Nc1ccccc1N1CCCC1 | inconclusive: 8.91 µM [inhibitor, single point] | –
69 | Cc1ccc(C(=O)NNC(=O)c2n[nH]c(=O)c3ccccc23)cc1C | inconclusive: 4.47 µM [inhibitor, single point] | –
70 | CC(=O)Nc1cccc2c1[n+]([O-])c(C)c(C)[n+]2[O-] | inconclusive: 3.16 µM [inhibitor, partial curve, poor fit] | –
71 | CN(C)c1cccc(C(=O)N(Cc2ccccc2)Cc2ccccc2)c1 | inconclusive: 17.8 µM [inhibitor, partial curve, poor fit] | –
